From PubChem BioAssay AID686978 (National Center for Advancing Translational Sciences (NCATS), 2013)
Where “and” joins values, the source holds several entries; their conditions need not be identical. Identical values can stand only once. Screen size: about 420,000 compounds; about 64,000 (15%) were called active. The shares of active, inactive and inconclusive entries below differ from those in the screen. Calls come from the whole dose curve; as a rule, active = well fitted inhibition curve with a large enough effect; inconclusive = small, poorly fitted or top-dose-only effect; inactive = flat fitted curve, though single readings scatter. Potencies of inconclusive entries are left out as doubtful fits.

Test: qHTS for Inhibitors of human tyrosyl-DNA phosphodiesterase 1 (TDP1): qHTS in cells in absence of CPT; note: nearly all actives have a fitted effect of over 55% in size
Conditions: DT40 Tdp1-/- hTDP1 cells, no CPT, ATP luminescence, 48 h; activity change, negative = growth inhibition: at 46.2 µM (top of the series) unless noted
Procedure, shortened: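 Growth of hTDP1-complemented DT40 Tdp1-knockout cells is measured by ATP luminescence after at least 48 hr compound exposure at 37 °C, with DMSO substituting for the 20 nM CPT used in the parallel screen.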
% is set by controls: 0 for no effect and ±100 for the full control effect; potency is the fitted concentration of half-maximal effect; tags give direction and shape of the fitted curve.

| SMILES | Potency | activity change, negative = growth inhibition |
| --- | --- | --- |
| CCNc1ncc2nc(-c3ccc(OC)cc3)c(=O)n(-c3ccc(OC)cc3)c2n1 | active: 0.0326 µM |  |
| COc1ccc(COC(=O)C2=C(C)NC(=O)NC2c2ccc(F)cc2)cc1 (stereo not given) | inconclusive [inhibitor, partial curve] |  |
| O=C1OC(c2ccccc2)(c2cc(Br)c(O)c(Br)c2)c2ccccc21 (stereo not given) | inconclusive [inhibitor, partial curve, poor fit] |  |
| Cc1cccc(NC(=S)NC2CC3CCC(C2)N3Cc2ccco2)c1C (stereo not given) |  | inactive: -7.08% |
| Cc1ccc(/C=C2\SC(=O)N(CCC(=O)N3CCN(C)CC3)C2=O)cc1 | active: 23.1 µM |  |
| Cc1cccn2c(=O)c3cc(C(=O)N4CCCCC4C)sc3nc12 (stereo not given) | inconclusive [inhibitor, partial curve] |  |
| CCOc1ccc2nc(NC(=O)NC3CCCCC3)sc2c1 | active: 20.6 µM |  |
| CC(=O)Oc1ccc(Cl)cc1/C=C/c1ccc2ccccc2n1 | active: 29.1 µM |  |
| Cc1ccc(C)c(NC(=O)C(=O)NCCc2csc(-c3ccc(C(F)(F)F)cc3)n2)c1 | inconclusive [inhibitor, single point] |  |
| CCOC(=O)CC(NCc1ccc(OC)c(OCC)c1)c1ccc(C)cc1 (stereo not given) | inconclusive [inhibitor, single point] |  |
| O=C1NCCN/C1=C\C(=O)c1ccc(Br)cc1 | inconclusive [inhibitor, single point] |  |
| Nc1nc(Br)c2c(F)cccc2c1-c1ccccc1 | inconclusive [inhibitor, single point] |  |
| Nc1nc(SCc2ccc([N+](=O)[O-])cc2)c2ncn(C3OC(CO)C(O)C3O)c2n1 (stereo not given) |  | inactive: -26.2% |
| O=C(C[C@H]1C=C[C@H](NC(=O)Nc2ccccc2F)[C@@H](CO)O1)NCc1ccc(-c2ccccc2)cc1 |  | inactive: -22.9% |
| Cc1ccn2cc(CSc3ccccc3)nc2c1 | inconclusive [inhibitor, single point] |  |
| CCOc1cccc(N2CCN(CCNC(=O)Nc3ccc(C)cc3)CC2)c1C |  | inconclusive: -33.9% [inhibitor] |
| CC(=O)NCc1ccc(-c2csc(NC(=O)CCc3nc4ccccc4c(=O)[nH]3)n2)s1 | inconclusive [inhibitor, single point] |  |
| CC1(C(=O)Nc2cccc3c2CCCC3)CCN1C(=O)Cc1ccccc1Cl (stereo not given) | inconclusive [inhibitor, single point] |  |
| CC1CCN(C(=O)c2cc(Cl)ccc2NC(=O)c2ccco2)CC1 |  | inactive: 17.3% |
| Cc1ccc(NC(=O)Cc2ccc(Cl)cc2)cc1S(=O)(=O)N1CCCCCC1 | inconclusive [inhibitor, single point] |  |
| COc1ccc(C(=O)NNc2cc(C)nc(NNC(=O)c3ccc(OC)cc3)n2)cc1 |  | inactive: -3.67% |
| CCOC(=O)Cn1c(=O)cc(-c2ccccc2)c2c(C)nn(C)c21 | inconclusive [inhibitor, single point] |  |
| O=C(c1ccccc1)N1CCN(C(=O)c2ccccc2)c2ccccc21 | inconclusive [inhibitor, partial curve, poor fit] |  |
| O=C(Nc1cccc(Cl)c1)Nc1ccnc(-c2cccnc2)n1 | active: 20.6 µM |  |
| O=C(NC(c1ccc(Cl)cc1)c1cnccn1)C1CCN(CCCOc2ccccc2)CC1 (stereo not given) | active: 20.6 µM |  |

| SMILES | Potency | activity change, negative = growth inhibition |
| --- | --- | --- |
| CC(=O)c1cccc(NS(=O)(=O)c2cc(OCC(N)=O)c(C)cc2Cl)c1 |  | inactive: -12.2% |
| Cc1ccc(N(Cc2ccc(C(=O)Nc3ccccc3C(=O)NCc3ccco3)cc2)S(C)(=O)=O)cc1C | active: 18.4 µM |  |
| O=C(c1cccc2c1-c1ccccc1/C2=N/O)N1CCCCC1 | inconclusive [inhibitor, single point] |  |
| CC[C@@H](NCCCn1cnc2c(SC)ncnc21)c1ccccc1 | inconclusive [inhibitor, single point] |  |
| COc1cccc(NC(=O)c2oc3ccccc3c2NC(=O)C(C)(C)C)c1 | inconclusive [inhibitor, single point] |  |
| CC(=O)Oc1ccc(Oc2ccc(-c3noc(C)n3)cc2)cc1 | active: 11.6 µM |  |
| CN(CCc1ccccc1)C(=O)c1ccc(NC(=O)Cc2ccc(NC(=O)C3CCCN(C(=O)CCc4ccccc4)C3)cc2)cc1 (stereo not given) | active: 10.3 µM |  |
| CCN1C(=O)[C@H]2[C@@H](c3ccc(-c4cccc(Cl)c4)cc3)N[C@@](Cc3ccccc3)(C(=O)OC)[C@H]2C1=O | inconclusive [inhibitor, single point] |  |
| CC(=O)NNC(=O)CC(=O)Nc1nc(C23CC4CC(CC(C4)C2)C3)cs1 | inconclusive [inhibitor, single point] |  |
| COc1cc(C2NC(=O)NC(C)=C2C(=O)OC2CCC(C)CC2)ccc1O (stereo not given) |  | inactive: 2.31% |
| COc1ccccc1CNc1ncncc1-c1ccccc1Cl |  | inactive: -9.58% |
| CCN1CCS/C1=C\C=C\C1=[N+](CC)CCS1 | active: 0.206 µM |  |
| O=C(NCCOc1ccccc1)c1ccccc1Cl |  | inactive: 1.95% |
| O=C(COC(=O)CNC(=O)c1ccccc1)Nc1nnc(-c2ccccc2)o1 |  | inactive: 10.1% |
| COc1ccc(OC)c2sc(N3CCc4ccccc4C3)nc12 |  | inactive: -7.88% |
| COc1ccc(OC)c(CCNC(=O)c2ccc(CS(=O)Cc3cccc(Cl)c3)o2)c1 (stereo not given) | active: 20.6 µM |  |
| COc1cccc(-c2noc(C3CCCN(C(=O)CC(C)(C)C)C3)n2)c1 (stereo not given) | inconclusive [inhibitor, single point] |  |
| Cc1ccccc1CSc1nc2nc(C)c(Cc3ccccc3)c(C)n2n1 | active: 16.4 µM |  |
| COc1ccc2c(CC(=O)OCC(=O)Nc3cccc(S(N)(=O)=O)c3)coc2c1 |  | inactive: 2.21% |
| CCOc1ccc(NC(=O)Cn2nc(-c3ccccc3Cl)n(CC)c2=S)cc1 | inconclusive [inhibitor, single point] |  |
| CCc1ccc(-n2nc(CO)c(C(=O)NCc3ccccn3)n2)cc1 | inconclusive [inhibitor, single point] |  |
| Cc1cc(C)nc(NC(N)=NC(C)c2ccccc2)n1 (stereo not given) | active: 16.4 µM |  |
| CCOC(=O)C1(CCCc2ccccc2)CCN(Cc2cnn(C)c2)CC1 | inconclusive [inhibitor, partial curve] |  |
| COc1cc(OC)c2c(c1)OC(=O)CC2c1ccc(C)cc1 (stereo not given) | inconclusive [inhibitor, single point] |  |
| CCN(CC)CCOc1ccc(/C(=C(\Cl)c2ccccc2)c2ccccc2)cc1 | active: 23.1 µM and active: 14.6 µM |  |

| SMILES | Potency | activity change, negative = growth inhibition |
| --- | --- | --- |
| Cc1ccc(NC(=O)C2=CC=CN3CCS(=O)(=O)N=C23)cc1 |  | inactive: 10.2% |
| COC(CN(C)C(=O)C1CCCN(S(=O)(=O)c2ccc3c(c2)oc(=O)n3C)C1)OC (stereo not given) |  | inactive: 23.8% |
| OCCN(CCO)CC(O)COc1ccc2c(c1)OCO2 (stereo not given) |  | inactive: -5.98% |
| CN(C)S(=O)(=O)c1cccc(NC(=O)C2CCCN(C(=O)c3ccc(Cl)cc3)C2)c1 (stereo not given) | active: 14.6 µM |  |
| COc1cc(/C=N/NC(=O)c2cccc3ccccc23)ccc1OCC(N)=O | active: 5.8 µM |  |
| Cc1ccc(-c2nnn(CC(=O)N(CCO)C(C(=O)NC(C)(C)C)c3ccncc3)n2)cc1 (stereo not given) |  | inactive: 4.49% |
| CCC(=O)Nc1sc2c(c1C#N)CCC2 |  | inactive: -18.4% |
| COc1cc(OC)c(NC2c3ccccc3C(=O)N2c2cc(C)ccn2)cc1Cl (stereo not given) | inconclusive [inhibitor, single point] |  |
| Cc1ccccc1C(=O)N/N=C/c1ccc([N+](=O)[O-])s1 | active: 13 µM |  |
| Cc1cc(NC(=O)CSc2cn(CCNC(=O)c3ccc(Cl)cc3)c3ccccc23)no1 | inconclusive [inhibitor, single point] |  |
| CN(CC(=O)Nc1ccc(F)c(F)c1F)C(=O)C1CCC1 |  | inactive: -9.04% |
| CC(=O)OCOC(=O)CN(CC(=O)OCOC(C)=O)c1ccccc1OCCOc1ccccc1N(CC(=O)OCOC(C)=O)CC(=O)OCOC(C)=O | active: 1.56 µM |  |
| CCCn1nc(C(=O)Nc2ccc3nc(N4CCOCC4)sc3c2)ccc1=O | active: 10.3 µM |  |
| CC(=O)c1cc2c(cc1NC(=O)Nc1cccc(Cl)c1)OCCO2 | inconclusive [inhibitor, single point] |  |
| Cc1nc(-c2ccccc2)sc1-c1ccc(SCC(=O)Nc2ccc(F)cc2F)nn1 | inconclusive [inhibitor, partial curve] |  |
| O=C(c1ccco1)c1cn(CC(=O)N2CCCc3ccccc32)c2ccccc12 | inconclusive [inhibitor, partial curve] |  |
| CCOC(=O)C1CCN(C(=S)NC(=O)c2cccs2)CC1 | inconclusive [inhibitor, single point] |  |
| CC(Sc1oc(-c2ccco2)nc1S(=O)(=O)c1ccc(Br)cc1)c1ccccc1 (stereo not given) | inconclusive [inhibitor, single point] |  |
| O=C(CN1CCCc2ccccc21)N/N=C/c1c(O)ccc2ccccc12 | active: 3.66 µM |  |
| COCCNc1nc(NCc2ccccc2OC)c2cnn(C)c2n1 | inconclusive [inhibitor, full curve] |  |
| CCC(=O)NC(Cc1ccccc1)c1ccc2c(c1)OCCCO2 (stereo not given) |  | inactive: -24.5% |
| CCOc1ccccc1NC(=O)c1cccc(NC(=O)C2CCCC2)c1 | inconclusive [inhibitor, single point] |  |
| COCCNC(=O)C(c1ccc(Cl)cc1)N(CCOC)C(=O)CCC(=O)Nc1nccs1 (stereo not given) |  | inconclusive: -30.7% [inhibitor] |
| CCC(CC)c1nn2c(=O)cc(COc3ccc(NC(=O)c4ccc(Cl)cc4)cc3)nc2s1 |  | inactive: 2.51% |
| CC(=O)Nc1ccc(NC(=O)C(C)OC(=O)c2ccc(S(=O)(=O)N3CCCCC3)cc2)cc1 (stereo not given) | inconclusive [inhibitor, single point] |  |
